# Assay results as given in the supplement of paper PMC8728848.
# This is one part of the list.
# B1: Ficolin A (Rattus norvegicus), Q9WTS8 (protein)
# chain: MWWPMLWAFPVLLCLCSSQALGQESGACPDVKIVGLGAQDKVAVIQSCPSFPGPPGPKGEPGSPAGRGERGLQGSPGKMGPPGSKGEPGTMGPPGVKGEKGERGTASPLGQKELGDALCRRGPRSCKDLLTRGIFLTGWYTIYLPDCRPLTVLCDMDVDGGGWTVFQRRVDGSINFYRDWDSYKRGFGNLGTEFWLGNDYLHLLTANGNQELRVDLREFQGQTSFAKYSSFQVSGEQEKYKLTLGQFLEGTAGDSLTKHNNMAFSTHDQDNDTNGGKNCAALFHGAWWYHDCHQSNLNGRYLPGSHESYADGINWLSGRGHRYSYKVAEMKIRAS
# Columns and labels:
# Assay in all cases: glycan array binding signal (z-score within array); higher = stronger binding
# Conditions in all cases: glycan notation: IUPAC condensed, linker removed
# Fuc(a1-2)Gal = molecular target: Fuc(a1-2)Gal
# How it was run: (§1)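 Negative Z-scores can be read as non-binding. The Z-score is calculated within each array and then averaged across arrays of one protein sequence at different concentrations or buffers and across linkers. Arrays, 3228 in all, were curated from the Consortium for Functional Glycomics database and kept only where the protein sequence was available.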
# Fuc(a1-2)Gal(b1-3)GalNAc = molecular target: Fuc(a1-2)Gal(b1-3)GalNAc
# How it was run: as §1
# [1] = molecular target: Fuc(a1-2)Gal(b1-3)GalNAc(b1-3)Gal
# How it was run: as §1
# [2] = molecular target: Fuc(a1-2)Gal(b1-3)GalNAc(b1-3)Gal(a1-4)Gal(b1-4)Glc
# How it was run: as §1
# [3] = molecular target: Fuc(a1-2)Gal(b1-3)GalNAc(b1-4)[Neu5Ac(a2-3)]Gal(b1-4)Glc
# How it was run: as §1
# Fuc(a1-2)Gal(b1-3)GlcNAc = molecular target: Fuc(a1-2)Gal(b1-3)GlcNAc
# How it was run: as §1
# [4] = molecular target: Fuc(a1-2)Gal(b1-3)GlcNAc(b1-3)Gal(b1-4)Glc
# How it was run: as §1
# [5] = molecular target: Fuc(a1-2)Gal(b1-3)[Fuc(a1-4)]GlcNAc
# How it was run: as §1
# Fuc(a1-2)Gal(b1-4)Glc = molecular target: Fuc(a1-2)Gal(b1-4)Glc
# How it was run: as §1
# Fuc(a1-2)Gal(b1-4)Glc6S = molecular target: Fuc(a1-2)Gal(b1-4)Glc6S
# How it was run: as §1
# Fuc(a1-2)Gal(b1-4)GlcNAc = molecular target: Fuc(a1-2)Gal(b1-4)GlcNAc
# How it was run: as §1
# [6] = molecular target: Fuc(a1-2)Gal(b1-4)GlcNAc(b1-3)Gal(b1-4)GlcNAc
# How it was run: as §1
# [7] = molecular target: Fuc(a1-2)Gal(b1-4)GlcNAc(b1-3)Gal(b1-4)GlcNAc(b1-3)Gal(b1-4)GlcNAc
# How it was run: as §1
# [8] = molecular target: Fuc(a1-2)Gal(b1-4)GlcNAc6S
# How it was run: as §1
# [9] = molecular target: Fuc(a1-2)Gal(b1-4)[Fuc(a1-3)]GlcNAc
# How it was run: as §1
# [10] = molecular target: Fuc(a1-2)Gal(b1-4)[Fuc(a1-3)]GlcNAc(b1-3)Gal(b1-4)[Fuc(a1-3)]GlcNAc
# How it was run: as §1
# [11] = molecular target: Fuc(a1-2)Gal(b1-4)[Fuc(a1-3)]GlcNAc(b1-3)Gal(b1-4)[Fuc(a1-3)]GlcNAc(b1-3)Gal(b1-4)[Fuc(a1-3)]GlcNAc
# How it was run: as §1
# Fuc(a1-2)Gal6S(b1-4)Glc = molecular target: Fuc(a1-2)Gal6S(b1-4)Glc
# How it was run: as §1
# [12] = molecular target: Fuc(a1-2)Gal6S(b1-4)Glc6S
# How it was run: as §1
# [13] = molecular target: Fuc(a1-2)Gal6S(b1-4)GlcNAc
# How it was run: as §1
# Fuc(a1-2)[Gal(a1-3)]Gal = molecular target: Fuc(a1-2)[Gal(a1-3)]Gal
# How it was run: as §1
# [14] = molecular target: Fuc(a1-2)[Gal(a1-3)]Gal(b1-3)GlcNAc
# How it was run: as §1
# [15] = molecular target: Fuc(a1-2)[Gal(a1-3)]Gal(b1-4)Glc
# How it was run: as §1
# [16] = molecular target: Fuc(a1-2)[Gal(a1-3)]Gal(b1-4)GlcNAc
# How it was run: as §1
# [17] = molecular target: Fuc(a1-2)[Gal(a1-3)]Gal(b1-4)[Fuc(a1-3)]GlcNAc
# How it was run: as §1
# [18] = molecular target: Fuc(a1-2)[Gal(a1-4)]Gal(b1-4)GlcNAc
# How it was run: as §1
# [19] = molecular target: Fuc(a1-2)[GalNAc(a1-3)]Gal
# How it was run: as §1
# [20] = molecular target: Fuc(a1-2)[GalNAc(a1-3)]Gal(b1-3)GlcNAc
# How it was run: as §1
# [21] = molecular target: Fuc(a1-2)[GalNAc(a1-3)]Gal(b1-4)Glc
# How it was run: as §1
# [22] = molecular target: Fuc(a1-2)[GalNAc(a1-3)]Gal(b1-4)GlcNAc
# How it was run: as §1
# [23] = molecular target: Fuc(a1-2)[GalNAc(a1-3)]Gal(b1-4)[Fuc(a1-3)]GlcNAc
# How it was run: as §1
# [24] = molecular target: Fuc(a1-2)[GalNAc(a1-4)]Gal(b1-4)GlcNAc
# How it was run: as §1
# [25] = molecular target: Fuc(a1-2)[GalNAc(b1-3)]Gal
# How it was run: as §1
# Fuc(a1-3)GlcNAc = molecular target: Fuc(a1-3)GlcNAc
# How it was run: as §1
# [26] = molecular target: Fuc(a1-3)[Gal(b1-4)]Glc6S
# How it was run: as §1
# [27] = molecular target: Fuc(a1-3)[Gal(b1-4)]GlcNAc
# How it was run: as §1
# [28] = molecular target: Fuc(a1-3)[Gal(b1-4)]GlcNAc(b1-2)Man(a1-3)[Fuc(a1-3)[Gal(b1-4)]GlcNAc(b1-2)Man(a1-6)]Man(b1-4)GlcNAc(b1-4)GlcNAc
# How it was run: as §1
binder,measurement,setting,value
B1,glycan array binding signal (z-score),Fuc(a1-2)Gal,-0.026
same,glycan array binding signal (z-score),Fuc(a1-2)Gal(b1-3)GalNAc,-0.108
same,glycan array binding signal (z-score),[1],-0.073
same,glycan array binding signal (z-score),[2],-0.033
same,glycan array binding signal (z-score),[3],-0.091
same,glycan array binding signal (z-score),Fuc(a1-2)Gal(b1-3)GlcNAc,-0.07
same,glycan array binding signal (z-score),[4],-0.053
same,glycan array binding signal (z-score),[5],-0.046
same,glycan array binding signal (z-score),Fuc(a1-2)Gal(b1-4)Glc,-0.102
same,glycan array binding signal (z-score),Fuc(a1-2)Gal(b1-4)Glc6S,-0.084
same,glycan array binding signal (z-score),Fuc(a1-2)Gal(b1-4)GlcNAc,0.062
same,glycan array binding signal (z-score),[6],-0.032
same,glycan array binding signal (z-score),[7],-0.051
same,glycan array binding signal (z-score),[8],-0.062
same,glycan array binding signal (z-score),[9],-0.084
same,glycan array binding signal (z-score),[10],-0.072
same,glycan array binding signal (z-score),[11],-0.064
same,glycan array binding signal (z-score),Fuc(a1-2)Gal6S(b1-4)Glc,-0.114
same,glycan array binding signal (z-score),[12],-0.137
same,glycan array binding signal (z-score),[13],-0.093
same,glycan array binding signal (z-score),Fuc(a1-2)[Gal(a1-3)]Gal,-0.072
same,glycan array binding signal (z-score),[14],-0.095
same,glycan array binding signal (z-score),[15],-0.122
same,glycan array binding signal (z-score),[16],-0.086
same,glycan array binding signal (z-score),[17],-0.084
same,glycan array binding signal (z-score),[18],-0.116
same,glycan array binding signal (z-score),[19],-0.035
same,glycan array binding signal (z-score),[20],-0.1
same,glycan array binding signal (z-score),[21],-0.09
same,glycan array binding signal (z-score),[22],-0.02
same,glycan array binding signal (z-score),[23],0.084
same,glycan array binding signal (z-score),[24],-0.068
same,glycan array binding signal (z-score),[25],-0.032
same,glycan array binding signal (z-score),Fuc(a1-3)GlcNAc,-0.111
same,glycan array binding signal (z-score),[26],-0.108
same,glycan array binding signal (z-score),[27],-0.087
same,glycan array binding signal (z-score),[28],-0.099
